Experimental findings from PubChem BioAssay (EPA / NIEHS) are described below.

Read-out in test [1]: Vascular endothelial growth factor receptor 2 (Homo sapiens) (UniProt P35968)
Briefly: BSK_4H_VEGFRII: BioMAP Diversity Plus: 4H Assay for Vascular endothelial growth factor receptor 2 (VEGFR2) Biomarker Activity (AID 2283031).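 Also: cell-surface VEGFR2 protein level quantified by ELISA.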 To be noted: actives raise or lower the signal; primary human endothelial cells (HUVEC). The method, boiled down:
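ELISA read-out of VEGFRII in primary human umbilical vein endothelium, taken 24 h after chemical treatment. Responses are expressed relative to DMSO, with bidirectional fitting.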

Read-out in test [2]: C-C motif chemokine 2 (Homo sapiens) (UniProt P13500)
Briefly: BSK_KF3CT_MCP1: BioMAP Diversity Plus: KF3CT Assay for Monocyte Chemoattractant Protein 1 (MCP1/CCL2) Biomarker Activity (AID 2283073). To be noted: actives raise or lower the signal; primary human keratinocytes with fibroblasts. The method, boiled down:
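ELISA readout of MCP-1 after 24 h chemical dosing of a human skin primary co-culture of keratinocytes and foreskin fibroblasts. Activity was fitted in both directions against DMSO.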

Test [3] concerns the target Estrogen receptor beta (Homo sapiens) (UniProt Q92731). Briefly: OT_ER_ERbERb_0480: Odyssey Thera (OT) 8-hour HEK293T Protein-Complementation Assay for Estrogen Receptor-beta/-beta Homodimer (AID 2283357; active = hit-call score of the fitted dose curve at least 0.9, where 1 is the maximum;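 also: active means signal gain over DMSO baseline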). An outline of the steps:
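Fluorescence gain from complemented reporter fragments on ER-beta LBD homodimer in HEK293T was quantified against DMSO controls after 8 h treatment, fixation in 4% formaldehyde and Draq5 staining.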

Test [4] shares this target. Briefly: OT_ER_ERbERb_1440: Odyssey Thera (OT) 24-hour HEK293T Protein-Complementation Assay for Estrogen Receptor-beta/-beta Homodimer (AID 2283380; active = hit-call score of the fitted dose curve at least 0.9, where 1 is the maximum;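 also: fluorescence gain from ER beta LBD homodimer complementation read by laser scanning cytometry; scored as signal increase over DMSO baseline for both agonists and antagonists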). The method, boiled down:
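HEK293T cells stably expressing human ER-beta LBD (aa 310-547) PCA homodimer pair, dosed 24 h; formaldehyde-fixed, Draq5-stained. Readout: increase in nuclear (agonist) or nuclear plus cytoplasmic (antagonist) fluorescence intensity versus DMSO, gain-of-signal fitting.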

Read-out in test [5]: Vascular cell adhesion molecule 1 (VCAM1), VCAM1 (gene 7412)
Briefly: BSK_4H_VCAM1: BioMAP Diversity Plus: 4H Assay for Vascular cell adhesion molecule 1 (VCAM1) Biomarker Activity (AID 2283033). Conditions: actives raise or lower the signal; primary human endothelial cells (HUVEC). The method, boiled down: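 In this human endothelial (HUVEC) system, biomarker ELISA was run 24 h after compound addition, and total protein in parallel wells was assessed by SRB at 560 nm; DMSO served as negative control.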

Read-out in test [6]: serum amyloid A (SAA), SAA1 (gene 6288)
Briefly: BSK_CASM3C_SAA: BioMAP Diversity Plus: CASM3C Assay for serum amyloid A (SAA) Biomarker Activity (AID 2283049).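 Also: SAA protein level quantified by ELISA.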 To be noted: actives raise or lower the signal; primary human coronary artery smooth muscle cells.

Read-out in test [7]: E-selectin (Homo sapiens) (UniProt P16581)
Briefly: BSK_LPS_Eselectin: BioMAP Diversity Plus: LPS Assay for Eselectin Biomarker Activity (AID 2283077). Conditions: actives raise or lower the signal; primary human HUVEC with PBMC. An outline of the steps: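 Primary human vascular co-culture (endothelium plus PBMC) was dosed with chemical, then E-selectin quantified by ELISA at 24 h. Endpoint values derive from bidirectional curve fitting relative to DMSO.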

For test [8], the target named is Peroxisome proliferator-activated receptor gamma (Homo sapiens) (UniProt P37231). Briefly: OT_PPARg_PPARgSRC1_0480: Odyssey Thera (OT) 8-hour Protein-Complementation Assay for Peroxisome Proliferator-activated Receptor Gamma / SRC-1 Co-activator (AID 2283387; active = hit-call score of the fitted dose curve at least 0.9, where 1 is the maximum;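 also: nuclear to cytoplasmic split Venus YFP fluorescence ratio reporting PPARg SRC-1 interaction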). An outline of the steps:
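Split-YFP (IFP1/IFP2) PPARg/SRC-1 reporter, HEK293T, 37 °C, 5% CO2; 8 h compound; formaldehyde fix + Draq5; high-content imaging, N/C ratio, ≥350 cells/image, positive direction vs DMSO.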

Read-out in test [9]: Cytochrome P450 4A22 (Homo sapiens) (UniProt Q5TCH4)
In words: LTEA_HepaRG_CYP4A22: Life Technologies and Expression Analysis (LTEA) Assay for Cytochrome P450 4A22 (CYP4A22) using HepaRG (AID 2283495). Conditions: actives raise or lower the signal; mRNA level, 48 h. The method, boiled down:
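Readout is CYP4A22 transcript induction or loss, quantified by qRT-PCR and normalized to ACTB, GAPDH and POLR2A. Human HepaRG cells receive test chemicals for 48 h at eight half-log concentrations from 100 uM in 0.5% DMSO.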

Read-out in test [10]: Paternally Expressed 10 (PEG10), PEG10 (gene 23089)
Briefly: LTEA_HepaRG_PEG10: Life Technologies and Expression Analysis (LTEA) Assay for Paternally Expressed 10 (PEG10) using HepaRG (AID 2283520). To be noted: actives raise or lower the signal; mRNA level, 48 h. The method, boiled down: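 After 48 h exposure of differentiated HepaRG cells (0.5% DMSO vehicle, eight concentrations up to 100 uM, duplicates), PEG10 mRNA was measured by TaqMan qRT-PCR. Values were normalised to endogenous control genes and analysed bidirectionally against vehicle.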

The nature of test [11]: ACEA_ER_AUC_viability: ACEA Biosciences xCELLigence Real-Time Cell Analysis on Estrogen Receptor Agonism for Viability (AID 2283782; active = hit-call score of the fitted dose curve at least 0.9, where 1 is the maximum;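 also: hit means loss of impedance signal meaning reduced cell growth or viability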). The method, boiled down: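 Continuous-exposure impedance cell analysis uses T-47D cells in charcoal-stripped serum, eight 1:4 dilutions topping at 100 uM final, biological duplicate. Area under the growth curve at 80 h is fitted against DMSO baseline.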

Test [12] has as its system zebrafish Peroxisome Proliferator-activated Receptor gamma (PPARg), gene 557037. Briefly: ATG_zfPPARg_XSP2: Attagene TRANS-FACTORIAL Multi-Species (XSP2) HepG2 Assay for zebrafish Peroxisome Proliferator-activated Receptor gamma (PPARg) (AID 2283833; active = hit-call score of the fitted dose curve at least 0.9, where 1 is the maximum;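 also: actives increase reporter signal over DMSO so AC50 reflects activation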). The method, boiled down: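 Multi-species TRANS format in HepG2, 24 h dosing; medium also contained 3 nM 6-alpha-fluorotestosterone and 1.5 nM norgestrel to stimulate androgen receptor. Zebrafish PPARg-GAL4 induced reporter mRNA was measured by RT-PCR/capillary electrophoresis.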

A short description of test [13]: TOX21_PR_BLA_Followup_Antagonist_viability: Viability Assessment in the Tox21 HEK293 Progesterone Receptor (PR) Antagonism Beta-lactamase Follow-Up Assay (AID 2283936; active = hit-call score of the fitted dose curve at least 0.9, where 1 is the maximum;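 also: cells exposed to compound with R5020 agonist for 16 h; hits lower the luminescence signal meaning cytotoxicity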). An outline of the steps: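 PR-UAS-bla HEK293T cells in medium with 2% charcoal-stripped FBS were treated with compounds plus R5020 for 16 hr at 37C. After the beta-lactamase read, CellTiter-Glo was added to the same wells and luminescence read after 30 min at room temperature.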

Read-out in test [14]: Monokine induced gamma interferon (MIG), CXCL9 (gene 4283)
In words: BSK_BE3C_MIG: BioMAP Diversity Plus: BE3C Assay for Monokine induced gamma interferon (MIG) Biomarker Activity (AID 2283035). Conditions: actives raise or lower the signal; primary human bronchial epithelial cells. The method, boiled down: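 hu bronchial epithelial 1° cells, 24 h cpd; MIG by ELISA; bidirectional fit, DMSO = baseline.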

In test [15] the target is human Opioid Receptor Delta 1 (Opiate D1), OPRD1 (gene 4985) (UniProt P41143). In words: NVS_GPCR_hOpiate_D1: NovaScreen (NVS) G Protein-Coupled Receptor Assay for human Opioid Receptor Delta 1 (Opiate D1) (AID 2283280; active = hit-call score of the fitted dose curve at least 0.9, where 1 is the maximum). The method, boiled down:
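Membrane preparations from CHO cells bearing the human receptor were incubated 1 h with test chemical, and bound radioligand was counted after filtration. Actives from 25 uM duplicate screening were retested in concentration-response.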

In test [16] the target is rat Adrenergic Receptor, Alpha 2 (Adra2), Non-selective Binding, Adra2a (gene 25083) (UniProt P22909). Briefly: NVS_GPCR_rAdra2_NonSelective: NovaScreen (NVS) G Protein-Coupled Receptor Assay for rat Adrenergic Receptor, Alpha 2 (Adra2), Non-selective Binding (AID 2283299; active = hit-call score of the fitted dose curve at least 0.9, where 1 is the maximum). The method, boiled down: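 Filter-based scintillation counting of radioligand binding to rat cortical membrane receptors, measured 1.25 hours post-dosing; loss of signal versus DMSO indicates displacement. Initial single-concentration duplicate at 25 uM, then concentration series.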

The subject of test [17] is guinea pig Dopamine Transporter (DAT), gene 100714898. In words: NVS_TR_gDAT: NovaScreen (NVS) Transporter Assay for guinea pig Dopamine Transporter (DAT) (AID 2283369; active = hit-call score of the fitted dose curve at least 0.9, where 1 is the maximum;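 also: active compounds lower bound radioligand signal relative to DMSO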). The method, boiled down:
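Scintillation counts of filter-retained radioligand report binding to guinea pig striatal membranes after 2 h. Activity scored as signal loss relative to DMSO, first at 25 uM in duplicate, then in concentration series to 50 uM.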

Read-out in test [18]: Tumor necrosis factor receptor superfamily member 6 (Homo sapiens) (UniProt P25445)
Briefly: LTEA_HepaRG_FAS: Life Technologies and Expression Analysis (LTEA) Assay for Fas cell surface death receptor (FAS) using HepaRG (AID 2283447). Conditions: actives raise or lower the signal; mRNA level, 48 h. An outline of the steps: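 Differentiated human HepaRG cells, pre-cultured 48 h, were exposed in duplicate for 48 h to 8-point half-log concentrations (top 100 uM, 0.5% DMSO) in serum-free induction medium; FAS mRNA measured by qRT-PCR, normalized to ACTB/GAPDH/POLR2A, bidirectional fit versus DMSO.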

Read-out in test [19]: UDP glucuronosyltransferase (UGT1A1), UGT1A1 (gene 54658)
In words: LTEA_HepaRG_UGT1A1: Life Technologies and Expression Analysis (LTEA) Assay for UDP glucuronosyltransferase (UGT1A1) using HepaRG (AID 2283538). To be noted: actives raise or lower the signal; mRNA level, 48 h. An outline of the steps:
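mRNA induction or loss of UGT1A1, by TaqMan qRT-PCR, in duplicate HepaRG wells after 48 h exposure to half-log dilutions topping at 100 uM; DMSO (0.5%) served as baseline.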

Test [20] has as its target Cellular tumor antigen p53 (Homo sapiens) (UniProt P04637). In words: TOX21_p53_BLA_p4_ratio: Tox21 HCT-116 p53 Agonism Beta-lactamase Assay, Ratio, Phase 4 (AID 2283601; active = hit-call score of the fitted dose curve at least 0.9, where 1 is the maximum). The method, boiled down:
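HCT116 cells carrying an inducible beta-lactamase reporter were plated at 4000 cells/well, rested 5 h, then exposed to compounds in DMSO (217-fold dilution) for 16 h at 37C. CCF4-AM substrate was loaded 2 h at room temperature; 460/530 nm emission ratio scored gain-of-signal versus DMSO.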

Read-out in test [21]: Cytochrome P450 3A4 (Homo sapiens) (UniProt P08684)
In words: CLD_CYP3A4_24hr: CellzDirect (CLD) Gene Expression Assay for xenobiotic metabolism (CYP3A4) at 24 hours (AID 2283689; active = hit-call score of the fitted dose curve at least 0.9, where 1 is the maximum). An outline of the steps:
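CYP3A4 mRNA induction read by quantitative nuclease protection (chemiluminescence) 24 hr after dosing. Cultured human hepatocytes (two donor preparations) treated daily, vehicle 0.2% DMSO; phase-contrast morphology annotates cytotoxicity.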

Test [22] in a line: IUF_NPC3_neuronal_differentiation_120hr: Leibniz Research Institute for Environmental Medicine (IUF) 120-hour Neuronal Differentiation Assay (NPC3) (AID 2284301). An outline of the steps: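 Neuronal differentiation of primary human neural progenitors measured by high-content imaging: percent TUBB3+ of Hoechst+ nuclei within migrated area at 120 h, seven-point serial dilution plus solvent control, gain or loss relative to DMSO.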

Test [23] is described as follows: BSK_CASM3C_Proliferation: Cell Proliferation Assessment in the BioMAP Diversity Plus: CASM3C Assay (AID 2283047).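 Also: sulforhodamine B total protein stain as relative cell number at 560 nm; sub-confluent cells exposed 48 h before staining; fitted both ways against DMSO so gain or loss of cell number.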 To be noted: primary human coronary artery smooth muscle cells.
Read-out in test [24]: ABC Transporter (ABCC2), ABCC2 (gene 1244)
Briefly: LTEA_HepaRG_ABCC2: Life Technologies and Expression Analysis (LTEA) Assay for ABC Transporter (ABCC2) using HepaRG (AID 2283464). Conditions: actives raise or lower the signal; mRNA level, 48 h. The method, boiled down: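 HepaRG, 48 h post-plating; serum-free induction medium; cpd 8-pt, 100 uM top, half-log, 0.5% DMSO, duplicate, 48 h. Readout: ABCC2 mRNA by qRT-PCR, norm. ACTB/GAPDH/POLR2A. Bidirectional fit vs DMSO baseline.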

Read-out in test [25]: Glutamate-cysteine ligase catalytic (GCLC), GCLC (gene 2729)
Briefly: LTEA_HepaRG_GCLC: Life Technologies and Expression Analysis (LTEA) Assay for Glutamate-cysteine ligase catalytic (GCLC) using HepaRG (AID 2283498). To be noted: actives raise or lower the signal; mRNA level, 48 h. The method, boiled down: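 Oxidative-stress marker GCLC is measured as mRNA change in human HepaRG liver cells after 48 h chemical treatment in 0.5% DMSO, eight concentrations from 100 uM. Activity is fitted bidirectionally against vehicle.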

For some of these results: This list holds what a sample rich in hits left over. Records with an inconclusive call do not appear. The entries are a selection whose mix differs from that of the whole data set. Some structures have more than one record in an assay (separate samples or runs), and their calls can disagree. Calls of active or inactive are those of the source. The calls were made as follows, unless noted: active = hit-call score of the fitted dose curve at least 0.9, where 1 is the maximum; inactive = score below 0.9.

Sequence of UniProt Q92731 (Q92731 whole entry, looked up, the tested form may be a part): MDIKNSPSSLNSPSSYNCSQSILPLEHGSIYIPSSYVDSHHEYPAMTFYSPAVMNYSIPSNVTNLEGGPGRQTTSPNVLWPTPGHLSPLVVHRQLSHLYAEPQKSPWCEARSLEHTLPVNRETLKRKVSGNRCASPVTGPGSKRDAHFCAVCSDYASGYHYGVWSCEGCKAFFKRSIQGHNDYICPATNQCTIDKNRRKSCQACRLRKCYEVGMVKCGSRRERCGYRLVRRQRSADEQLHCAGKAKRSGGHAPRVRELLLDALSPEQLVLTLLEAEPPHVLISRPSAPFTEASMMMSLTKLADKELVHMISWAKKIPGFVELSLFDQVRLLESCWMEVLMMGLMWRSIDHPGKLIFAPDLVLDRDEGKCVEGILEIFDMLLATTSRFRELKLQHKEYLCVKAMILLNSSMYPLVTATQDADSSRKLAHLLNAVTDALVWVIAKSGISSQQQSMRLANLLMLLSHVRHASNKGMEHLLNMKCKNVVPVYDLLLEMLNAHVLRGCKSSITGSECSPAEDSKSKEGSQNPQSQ
Sequence of UniProt P08684 (P08684 whole entry, looked up): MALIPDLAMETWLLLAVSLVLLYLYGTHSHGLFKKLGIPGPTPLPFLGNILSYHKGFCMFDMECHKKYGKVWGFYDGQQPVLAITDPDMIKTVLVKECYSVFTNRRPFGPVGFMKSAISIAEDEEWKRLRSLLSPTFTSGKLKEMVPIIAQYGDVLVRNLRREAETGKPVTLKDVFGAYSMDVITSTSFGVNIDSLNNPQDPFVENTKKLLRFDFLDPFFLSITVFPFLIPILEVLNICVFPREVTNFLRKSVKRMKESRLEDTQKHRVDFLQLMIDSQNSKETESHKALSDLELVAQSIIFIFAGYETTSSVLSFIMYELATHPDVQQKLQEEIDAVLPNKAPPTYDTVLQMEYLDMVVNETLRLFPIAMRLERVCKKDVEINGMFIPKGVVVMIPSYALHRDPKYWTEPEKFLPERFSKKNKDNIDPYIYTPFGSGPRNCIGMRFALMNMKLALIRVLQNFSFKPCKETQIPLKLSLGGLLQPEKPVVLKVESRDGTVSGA
Sequence of Cytochrome P450 4A22 (Homo sapiens) (Q5TCH4 whole entry, looked up): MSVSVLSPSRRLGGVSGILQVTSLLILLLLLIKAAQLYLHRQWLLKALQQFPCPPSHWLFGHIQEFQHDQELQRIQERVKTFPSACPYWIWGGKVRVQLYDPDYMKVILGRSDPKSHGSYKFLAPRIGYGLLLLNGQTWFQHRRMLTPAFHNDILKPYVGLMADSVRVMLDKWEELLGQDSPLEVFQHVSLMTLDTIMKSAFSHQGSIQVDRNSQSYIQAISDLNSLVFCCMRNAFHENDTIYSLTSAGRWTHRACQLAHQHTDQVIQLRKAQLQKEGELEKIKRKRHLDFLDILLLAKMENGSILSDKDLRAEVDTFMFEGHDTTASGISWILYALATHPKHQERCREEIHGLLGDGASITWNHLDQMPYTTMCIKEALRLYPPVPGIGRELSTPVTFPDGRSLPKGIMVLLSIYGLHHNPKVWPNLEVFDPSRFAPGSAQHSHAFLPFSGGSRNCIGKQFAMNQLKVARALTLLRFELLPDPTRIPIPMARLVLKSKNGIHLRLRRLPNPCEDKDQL
Sequence of Tumor necrosis factor receptor superfamily member 6 (Homo sapiens) (P25445 whole entry, looked up): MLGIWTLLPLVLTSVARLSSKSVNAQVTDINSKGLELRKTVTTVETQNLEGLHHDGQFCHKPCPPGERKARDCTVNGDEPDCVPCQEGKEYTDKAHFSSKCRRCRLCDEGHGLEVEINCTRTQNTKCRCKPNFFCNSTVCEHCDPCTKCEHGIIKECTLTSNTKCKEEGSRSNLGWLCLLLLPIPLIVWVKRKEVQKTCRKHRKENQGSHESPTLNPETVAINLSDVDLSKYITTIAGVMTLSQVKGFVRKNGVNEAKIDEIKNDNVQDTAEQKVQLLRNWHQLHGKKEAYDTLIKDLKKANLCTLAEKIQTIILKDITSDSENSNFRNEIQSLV
Sequence of UniProt P22909 (P22909 whole entry, looked up): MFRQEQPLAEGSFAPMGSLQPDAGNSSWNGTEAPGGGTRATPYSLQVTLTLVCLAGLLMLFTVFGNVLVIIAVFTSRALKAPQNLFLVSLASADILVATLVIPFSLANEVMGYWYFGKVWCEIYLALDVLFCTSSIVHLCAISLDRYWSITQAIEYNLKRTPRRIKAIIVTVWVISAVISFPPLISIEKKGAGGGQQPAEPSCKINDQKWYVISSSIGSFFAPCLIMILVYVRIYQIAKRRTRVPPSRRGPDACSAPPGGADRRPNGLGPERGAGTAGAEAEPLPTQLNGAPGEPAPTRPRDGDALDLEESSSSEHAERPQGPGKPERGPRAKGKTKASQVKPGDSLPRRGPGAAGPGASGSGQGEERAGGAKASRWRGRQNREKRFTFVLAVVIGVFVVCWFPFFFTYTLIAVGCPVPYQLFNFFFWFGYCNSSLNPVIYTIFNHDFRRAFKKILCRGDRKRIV
Sequence of UniProt P16581 (P16581 whole entry, looked up): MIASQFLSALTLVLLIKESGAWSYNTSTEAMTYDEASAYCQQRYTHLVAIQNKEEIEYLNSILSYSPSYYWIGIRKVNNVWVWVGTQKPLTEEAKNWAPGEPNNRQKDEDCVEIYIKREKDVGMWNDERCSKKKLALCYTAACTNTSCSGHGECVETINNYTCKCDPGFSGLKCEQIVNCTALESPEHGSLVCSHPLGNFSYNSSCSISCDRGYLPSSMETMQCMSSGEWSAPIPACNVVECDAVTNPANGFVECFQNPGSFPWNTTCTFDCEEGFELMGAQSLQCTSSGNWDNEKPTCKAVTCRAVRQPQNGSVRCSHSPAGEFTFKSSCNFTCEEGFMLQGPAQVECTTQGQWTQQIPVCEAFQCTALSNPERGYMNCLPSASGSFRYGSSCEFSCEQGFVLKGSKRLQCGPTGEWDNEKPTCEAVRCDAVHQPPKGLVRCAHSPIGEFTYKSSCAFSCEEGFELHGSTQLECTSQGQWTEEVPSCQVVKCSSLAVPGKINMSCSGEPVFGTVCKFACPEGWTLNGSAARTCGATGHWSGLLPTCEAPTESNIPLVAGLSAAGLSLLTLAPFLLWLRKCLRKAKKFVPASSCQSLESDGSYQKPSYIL
Sequence of UniProt P41143 (P41143 whole entry, looked up): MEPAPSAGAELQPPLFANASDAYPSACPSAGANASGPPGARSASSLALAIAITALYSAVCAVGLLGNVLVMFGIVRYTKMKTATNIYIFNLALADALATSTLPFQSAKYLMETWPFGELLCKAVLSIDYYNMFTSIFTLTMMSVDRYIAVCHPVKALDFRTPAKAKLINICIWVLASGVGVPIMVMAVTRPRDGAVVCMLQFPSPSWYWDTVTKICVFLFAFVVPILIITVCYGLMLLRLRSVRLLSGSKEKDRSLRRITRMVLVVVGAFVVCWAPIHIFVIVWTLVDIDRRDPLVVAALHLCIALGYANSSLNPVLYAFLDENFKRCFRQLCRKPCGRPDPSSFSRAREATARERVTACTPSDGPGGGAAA
Sequence of UniProt P37231 (P37231 whole entry, looked up): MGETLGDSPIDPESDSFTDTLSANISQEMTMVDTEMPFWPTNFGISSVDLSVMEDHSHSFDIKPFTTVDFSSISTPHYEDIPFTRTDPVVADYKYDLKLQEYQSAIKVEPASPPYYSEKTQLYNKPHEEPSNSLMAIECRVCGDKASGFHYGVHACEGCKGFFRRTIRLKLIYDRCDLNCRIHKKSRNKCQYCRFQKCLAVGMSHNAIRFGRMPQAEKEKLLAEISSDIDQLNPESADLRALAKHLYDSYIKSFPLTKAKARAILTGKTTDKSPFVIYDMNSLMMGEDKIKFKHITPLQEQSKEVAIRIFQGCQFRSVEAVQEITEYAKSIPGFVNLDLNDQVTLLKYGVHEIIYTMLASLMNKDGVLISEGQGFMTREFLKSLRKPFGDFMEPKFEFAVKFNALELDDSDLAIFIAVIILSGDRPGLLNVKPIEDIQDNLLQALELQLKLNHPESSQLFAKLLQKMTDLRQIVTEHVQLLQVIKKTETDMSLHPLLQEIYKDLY
Sequence of C-C motif chemokine 2 (Homo sapiens) (P13500 whole entry, looked up): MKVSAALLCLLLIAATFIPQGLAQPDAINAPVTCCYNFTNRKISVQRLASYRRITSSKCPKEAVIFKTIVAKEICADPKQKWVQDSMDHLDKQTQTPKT
Sequence of UniProt P04637 (P04637 whole entry, looked up): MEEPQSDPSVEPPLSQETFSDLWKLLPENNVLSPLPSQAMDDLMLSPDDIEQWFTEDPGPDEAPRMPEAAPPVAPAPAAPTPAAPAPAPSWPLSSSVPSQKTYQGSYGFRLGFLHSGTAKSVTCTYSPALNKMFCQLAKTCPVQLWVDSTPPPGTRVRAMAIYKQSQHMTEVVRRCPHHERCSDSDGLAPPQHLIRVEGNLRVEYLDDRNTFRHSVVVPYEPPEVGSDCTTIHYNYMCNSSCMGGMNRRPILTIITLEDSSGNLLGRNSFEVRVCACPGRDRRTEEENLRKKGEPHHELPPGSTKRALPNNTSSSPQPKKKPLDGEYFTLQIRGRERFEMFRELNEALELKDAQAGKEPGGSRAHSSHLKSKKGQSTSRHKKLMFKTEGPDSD

In the case of `CCCCCCCCCc1ccc(O)cc1`, the concentration at half-maximal activity (AC50) (in general, the midpoint of the concentration-response curve, whichever way the signal moves) in test [1] was active: 12.3 µM; in test [2], active: 15.8 µM; in test [3] it was active: 12.8 µM; in test [4] it was active: 11.3 µM.
With `Clc1ccc(C(c2ccccc2Cl)C(Cl)(Cl)Cl)cc1` (stereo not given), the AC50 in test [5] is active: 18.5 µM; in test [6], active: 22.7 µM; in test [7], active: 22.2 µM; in test [9], active: 36.3 µM; in test [11], active: 35.2 µM. In addition, the molecule was classed as inactive in test [8], in test [10], in test [12] and in test [13].
As to `CC[C@H](C)[C@H]1O[C@]2(C=C[C@@H]1C)C[C@@H]1C[C@@H](C/C=C(\C)[C@@H](O[C@H]3C[C@H](OC)[C@@H](O[C@H]4C[C@H](OC)[C@@H](O)[C@H](C)O4)[C@H](C)O3)[C@@H](C)/C=C/C=C3\CO[C@@H]4[C@H](O)C(C)=C[C@@H](C(=O)O1)[C@]34O)O2` (tested in a mixture with another compound), the AC50 in [14] is active: 7.75 µM; in test [15], active: 12.2 µM; in test [16], active: 10.9 µM; in test [17], active: 11.5 µM; in test [18], active: 7.79 µM; in test [19] it was active: 13.7 µM. The values for the AC50 in [20], in [21] and in test [22] were active: 11.5 µM, active: 20 µM and active: 6.51 µM, respectively.
For the molecule `Clc1ccccc1-c1nnc(-c2ccccc2Cl)nn1`, the AC50 in test [23] was active: 10.9 µM; in [24], active: 11.4 µM. Further, the molecule was classed as inactive in test [25].
